According to PMC4336329 (PLoS ONE, 2015):
About 2,200 (0.71%) of roughly 310,000 compounds showed an effect of 50% or more. Effects have a minus sign here. The list shows a part of the results.

What follows are compounds tested against human ether-à-go-go-related gene (hERG) potassium channel (human, UniProt Q12809) (assay: primary screen, population patch clamp on CHO cells stably expressing hERG).
human ether-à-go-go-related gene (hERG) potassium channel, sequence (Q12809 whole entry, looked up): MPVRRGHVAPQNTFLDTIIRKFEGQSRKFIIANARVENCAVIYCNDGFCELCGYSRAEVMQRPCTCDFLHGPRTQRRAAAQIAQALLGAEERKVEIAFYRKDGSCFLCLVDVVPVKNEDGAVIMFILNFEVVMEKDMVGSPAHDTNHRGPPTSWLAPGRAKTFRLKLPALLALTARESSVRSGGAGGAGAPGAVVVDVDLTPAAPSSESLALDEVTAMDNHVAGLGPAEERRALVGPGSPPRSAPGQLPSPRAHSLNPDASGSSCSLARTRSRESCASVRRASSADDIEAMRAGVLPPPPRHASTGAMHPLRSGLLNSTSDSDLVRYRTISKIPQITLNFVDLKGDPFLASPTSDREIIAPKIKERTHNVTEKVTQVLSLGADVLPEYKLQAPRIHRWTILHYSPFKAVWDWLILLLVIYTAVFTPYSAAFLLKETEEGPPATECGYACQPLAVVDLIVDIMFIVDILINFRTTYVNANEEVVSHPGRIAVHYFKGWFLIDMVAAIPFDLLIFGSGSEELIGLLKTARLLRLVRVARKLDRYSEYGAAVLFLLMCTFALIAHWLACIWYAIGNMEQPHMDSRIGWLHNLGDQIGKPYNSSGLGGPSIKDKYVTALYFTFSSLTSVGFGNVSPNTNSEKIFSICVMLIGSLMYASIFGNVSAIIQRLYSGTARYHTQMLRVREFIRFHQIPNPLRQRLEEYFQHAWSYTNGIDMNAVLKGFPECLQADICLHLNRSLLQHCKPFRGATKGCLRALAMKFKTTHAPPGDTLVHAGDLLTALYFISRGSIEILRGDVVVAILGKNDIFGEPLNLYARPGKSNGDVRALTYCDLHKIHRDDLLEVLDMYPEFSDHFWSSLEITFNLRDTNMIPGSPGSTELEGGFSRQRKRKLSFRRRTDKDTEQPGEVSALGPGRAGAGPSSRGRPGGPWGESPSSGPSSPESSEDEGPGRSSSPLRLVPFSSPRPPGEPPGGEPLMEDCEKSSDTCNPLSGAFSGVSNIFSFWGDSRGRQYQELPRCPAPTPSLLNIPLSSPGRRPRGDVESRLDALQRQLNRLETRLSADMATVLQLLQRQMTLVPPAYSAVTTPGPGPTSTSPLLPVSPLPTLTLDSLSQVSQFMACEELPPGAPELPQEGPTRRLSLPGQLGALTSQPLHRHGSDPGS

Structure (SMILES)	hERG current change (%, negative = inhibition) at 1uM [%]
CCc1cccc(NC(=O)CCS(=O)(=O)c2ccc(Br)cc2)c1	1.8
O=C(NCCOc1ccccc1Cl)c1ncn[nH]1	0.249
O=C(COc1ccc(Cl)cc1Cl)N1CCCN(C(=O)COc2ccc(Cl)cc2Cl)CC1	-4.42
COC(=O)C1=C(c2ccc(F)cc2OCc2ccccc2)C[C@@H]2CC[C@H]1N2C(=O)NCc1ccc(OC)c(OC)c1	9.71
CCOc1ccc(N2CC(C(=O)NCc3ccc(C)n3C)CC2=O)cc1 (stereo not drawn)	1.09
CCN(CC)C(=O)Cn1cc(C(=O)C(=O)N(C)C2CCN(C)CC2)c2ccccc21	6.52
COC(=O)c1c(-c2cccc3ccccc23)csc1NC(=O)Cc1ccc(OC)c(OC)c1	11.5
COc1ccc(S(=O)(=O)n2ccnc2)c2cccnc12	17.7
O=S(=O)(NCc1csc(-c2cccs2)n1)c1ccc(Cl)cc1	12.1
FC(F)(F)c1nnc2ccc(Cl)nn12	11
COc1ccc(CNC(=O)C(=O)NCC2OCCN2S(=O)(=O)c2ccc(C)cc2)cc1 (stereo not drawn)	30.3
O=c1[nH]c(C2CCN(S(=O)(=O)c3ccc(S(=O)(=O)NC4CC4)cc3)CC2)nc2c1nnn2Cc1cccc(F)c1	5.38
C=CCSc1nc2sc(-c3ccccc3)cc2c(=O)n1N	23.1
Cc1ccc2nc(-c3ccccc3)cc(C(=O)N3CCN(c4ccccc4O)CC3)c2c1	12
COc1ccc(NC(=O)CN2CCc3ccccc3C2)c([N+](=O)[O-])c1	34.8
CCN(CC)S(=O)(=O)c1ccc(C(=O)OCCNC(=O)c2cccnc2)cc1	12.1
CCOC(=O)C1(CCOC)CCN(Cc2nc(C(C)C)cs2)CC1	16.7
CC(C)C[C@H](NC(=O)[C@@H](O)[C@H](N)Cc1ccccc1)C(=O)O	10.5
O=[N+]([O-])c1ccc(-c2nc3ccc([N+](=O)[O-])cc3[nH]2)cc1	5.39

Structure (SMILES)	hERG current change (%, negative = inhibition) at 1uM [%]
Cc1scc(C(=O)NNC(=S)NCC(C)C)c1C	10.5
Cc1ccc(NC(=O)C2c3ccccc3Oc3ccccc32)nc1	8
COc1ccc(/C=N/Nc2cc(C)nc3ccccc23)cc1	-12.9
CCOc1ccc(CC2c3cc(OCC)c(OCC)cc3CCN2C(=O)CN2CCN(C)CC2)cc1OCC.Cl (stereo not drawn)	7.53
COc1ccc(C2Nc3ccccc3C(=O)N2NC(C)=O)cc1OC (stereo not drawn)	3.7
On1nnc2ccccc21	5.77
COc1ccc(-c2oc3cccnc3c2C#CCO)cc1	14.4
O=C(c1ccccc1)c1c[nH]c(C(=O)NCCCn2ccnc2)c1	11.2
O=[N+]([O-])c1cccc(/C=N/N=C\c2ccccc2)c1	19.6
Cc1c(CCC(=O)O)c(=O)oc2cc3oc4c(c3cc12)CCCC4	17.1
CCN(CC)S(=O)(=O)c1cccc(-c2nnc(SCCOc3ccccc3)o2)c1	12.4
CCN(c1cc(C)cc(C)c1)S(=O)(=O)c1nnc(NC(=O)c2ccco2)s1	4.14
CCOC(=O)C1=CN(CC2CCCO2)C=C(C(=O)OCC)C1c1ccccc1C(F)(F)F (stereo not drawn)	-2.85
Nc1nc2ccccc2nc1N1CCCC1	-6.95
O=c1cc(N/N=C/c2ccccc2)[nH]c(=O)[nH]1	14.7
S=c1[nH]nc(-c2ccc(Cl)cc2)n1/N=C/c1cccs1	0.537
O=C1CCN(CCCc2ccccc2)CCN1CCO	5.78
O=C(/C=N/O)Nc1cccnc1	16.2
O=c1[nH]cnc2onc(-c3ccc(F)cc3)c12	12.1

Structure (SMILES)	hERG current change (%, negative = inhibition) at 1uM [%]
Cc1ccnc(N2CCCC(C(=O)Nc3cc(F)ccc3C)C2)n1 (stereo not drawn)	7.57
CCn1nc(C)c(CN2CCCC(C(=O)c3cccc(OC(C)C)c3)C2)c1C (stereo not drawn)	-4.68
Cc1ccc(NC(=O)Cn2cncc2-c2ccc([N+](=O)[O-])cc2)cc1C	7.55
Cc1c(CN2CCC(C)CC2)c(=O)n(-c2ccccc2)n1C	-4.65
O=C(NC(=S)Nc1nc2c(s1)CSc1ccccc1-2)c1ccccc1	6.34
O=C(N/N=C/c1ccoc1)c1ccccc1	10.5
CCCCn1c(CN2CCN(c3ccccc3)CC2)nc2c1c(=O)n(C)c(=O)n2C	-18.6
C=CCN1C(=O)/C(=C/c2ccc(-c3ccc(F)cc3)o2)SC1=S	8.52
Cc1ccc(CNC(=O)c2oc3ccc(S(=O)(=O)N4CCOCC4)cc3c2C)cc1	3.78
Cn1c(=O)n(C)c2cc(NS(=O)(=O)c3ccc4c(c3)CCCC4)ccc21	-8.66
Cc1ccc(C)c(/C=C2\N=C(c3ccccc3F)OC2=O)c1	13.9
Nc1ccn(-c2ccccc2)c(=O)c1	12.1
O=C(Nn1c(-c2ccc(Br)cc2)nc2ccccc2c1=O)c1ccc([N+](=O)[O-])cc1	-21.4
CCOC(=O)C1=C(C)Nc2nnnn2C1c1cccc(OC)c1OC (stereo not drawn)	0.996
N#CC1(c2ccccc2)CCC(=NNS(=O)(=O)c2ccccc2)CC1 (stereo not drawn)	0.194
COc1ccc(C(=O)Nc2ccnn2C2CCN(Cc3cnn(C)c3)CC2)cc1	16.9
O=C(COC(=O)C1CCC1)NC(=O)c1ccccc1	15.6
COc1ccc(C2c3c(-c4ccccc4O)n[nH]c3C(=O)N2CCc2ccc(OC)c(OC)c2)cc1 (stereo not drawn)	-2.59
O=C(OCc1cc(=O)n2cc(Br)ccc2n1)C1COc2ccccc2O1 (stereo not drawn)	9.32
